Laboratory results as given in the supplement of paper PMC4967469.
A lower IC50 marks a more sensitive line; a limit (>, <) means that the fit lies beyond the doses tested. AUC is the area under the same curve over the 256-fold range up to the top dose, as a fraction; the more sensitive the line, the further below 1. For part of these data: Where the top dose is marked as inferred, it was calculated from the reported fits. For part of these data: An entry number marks a drug with two screens in the source, which often give different values.

How the values were obtained:
Experiment in all cases: Viability of human cancer cell lines after 72 h of drug (GDSC screen)
AZD6244 = compound: Cn1cnc2c(F)c(Nc3ccc(Br)cc3Cl)c(C(=O)NOCCO)cc21 [AZD6244]; details: top dose 4 µM; screen: GDSC drug entry 1498; top dose inferred
Description: (§1)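 Human cancer cell lines in 384-well plates, medium with 10% serum, drug for 72 h over a 256-fold dose range (nine 2-fold or five 4-fold steps up to the top dose). Adherent lines were fixed and stained with the nucleic acid dye Syto60, suspension lines read with resazurin; signal relative to control wells, capped at 0 and 100%. One two-parameter sigmoid per drug and line, fitted in a mixed model over all curves with the slope shared within a line.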

EX-527 = compound: NC(=O)C1CCCc2c1[nH]c1ccc(Cl)cc21 [EX-527]; details: top dose 20 µM
Description: as §1

YM201636 = compound: Nc1ccc(C(=O)Nc2cccc(-c3nc(N4CCOCC4)c4oc5ncccc5c4n3)c2)cn1 [YM201636]; details: top dose 5.12 µM; top dose inferred
Description: as §1

TAK-715 = compound: CCc1nc(-c2cccc(C)c2)c(-c2ccnc(NC(=O)c3ccccc3)c2)s1 [TAK-715]; details: top dose inferred
Description: as §1

Cell Line | AUC (AZD6244) | IC50 (AZD6244) [µM] | AUC (EX-527) | IC50 (EX-527) [µM] | AUC (YM201636) | IC50 (YM201636) [µM] | AUC (TAK-715) | IC50 (TAK-715) [µM]
AsPC-1 (pancreas, adherent) | 0.714 | 1.57 | 0.973 | > 20 | 0.859 | > 5.12 |  | 
CADO-ES1 (Ewing sarcoma, suspension) | 0.981 | > 4 | 0.988 | > 20 | 0.882 | > 5.12 |  | 
CHP-134 (neuroblastoma, suspension) |  |  | 0.98 | > 20 | 0.856 | > 5.12 |  | 
COR-L303 (small cell lung carcinoma, suspension) |  |  | 0.987 | > 20 | 0.876 | 4.8 |  | 
COR-L311 (small cell lung carcinoma, suspension) |  |  |  |  | 0.921 | > 5.12 |  | 
COR-L321 (lung, suspension) | 0.966 | > 4 | 0.987 | > 20 | 0.896 | > 5.12 |  | 
D-423MG (glioma, adherent) | 0.904 | > 4 | 0.981 | > 20 | 0.882 | > 5.12 |  | 
D-566MG (glioma, adherent) | 0.924 | > 4 | 0.981 | > 20 | 0.92 | > 5.12 |  | 
DOV13 (ovary, adherent) | 0.741 | 1.38 | 0.981 | > 20 | 0.91 | > 5.12 |  | 
EMC-BAC-1 (lung adenocarcinoma, adherent) | 0.929 | > 4 | 0.969 | > 20 | 0.845 | 4.51 |  | 
EMC-BAC-2 (lung adenocarcinoma, adherent) | 0.862 | > 4 | 0.901 | > 20 | 0.907 | > 5.12 |  | 
ESO26 (oesophagus, adherent) | 0.967 | > 4 | 0.986 | > 20 | 0.837 | 3.16 |  | 
ESO51 (oesophagus, semi-adherent) | 0.871 | > 4 | 0.972 | > 20 | 0.901 | > 5.12 |  | 
FLO-1 (oesophagus, adherent) | 0.803 | 3.15 | 0.975 | > 20 | 0.815 | 4.61 |  | 
HeLa (cervix, adherent) |  |  | 0.924 | > 20 | 0.974 | > 5.12 |  | 
Hey (ovary, adherent) | 0.725 | 1.04 | 0.985 | > 20 | 0.935 | > 5.12 |  | 
Hs746T (stomach, adherent) | 0.872 | > 4 | 0.981 | > 20 | 0.954 | > 5.12 |  | 
JHOS-2 (ovary, adherent) | 0.673 | 0.828 | 0.983 | > 20 | 0.895 | > 5.12 |  | 
JHOS-3 (ovary, adherent) | 0.725 | 1.33 | 0.981 | > 20 | 0.873 | > 5.12 |  | 
KMS-11 (myeloma, suspension) | 0.988 | > 4 | 0.99 | > 20 | 0.65 | 0.777 |  | 
KYAE-1 (oesophagus, suspension) | 0.924 | > 4 | 0.985 | > 20 | 0.677 | 1.06 |  | 
NCC021 (kidney, adherent) | 0.966 | > 4 | 0.985 | > 20 | 0.91 | > 5.12 |  | 
NCI-H630 (large intestine, adherent) | 0.858 | 3.68 | 0.974 | > 20 | 0.925 | > 5.12 |  | 
SNU-175 (large intestine, suspension) |  |  | 0.984 | > 20 | 0.751 | 1.6 |  | 
TE-10 (oesophagus, adherent, top dose 20 µM) |  |  |  |  |  |  | 0.945 | > 20
TE-11 (oesophagus, adherent, top dose 20 µM) |  |  |  |  |  |  | 0.957 | > 20
TE-12 (oesophagus, suspension, top dose 20 µM) |  |  |  |  |  |  | 0.793 | 11.4

Cell Line | AUC (AZD6244) | IC50 (AZD6244) [µM] | AUC (EX-527) | IC50 (EX-527) [µM] | AUC (YM201636) | IC50 (YM201636) [µM] | AUC (TAK-715) | IC50 (TAK-715) [µM]
TE-15 (oesophagus, suspension, top dose 20 µM) |  |  |  |  |  |  | 0.772 | 8.72
TE-441-T (rhabdomyosarcoma, adherent, top dose 20 µM) |  |  |  |  |  |  | 0.955 | > 20
TGBC1TKB (biliary tract, adherent, top dose 20 µM) |  |  |  |  |  |  | 0.981 | > 20
TGBC11TKB (stomach, adherent, top dose 20 µM) |  |  |  |  |  |  | 0.988 | > 20
TGBC24TKB (biliary tract, adherent, top dose 20 µM) |  |  |  |  |  |  | 0.957 | > 20
TGW (neuroblastoma, adherent, top dose 20 µM) |  |  |  |  |  |  | 0.928 | > 20
THP-1 (acute myeloid leukaemia, suspension, top dose 20 µM) |  |  |  |  |  |  | 0.632 | 2.77
TK10 (kidney, adherent, top dose 20 µM) |  |  |  |  |  |  | 0.925 | > 20
TK (B-cell lymphoma, suspension, top dose 20 µM) |  |  |  |  |  |  | 0.912 | > 20
TMK-1 (stomach, adherent, top dose 20 µM) |  |  |  |  |  |  | 0.982 | > 20
TOV-21G (ovary, adherent, top dose 20 µM) |  |  |  |  |  |  | 0.966 | > 20
TOV-112D (ovary, adherent, top dose 20 µM) |  |  |  |  |  |  | 0.759 | 7.03
TT2609-C02 (thyroid, adherent, top dose 20 µM) |  |  |  |  |  |  | 0.968 | > 20
TT (thyroid, adherent, top dose 20 µM) |  |  |  |  |  |  | 0.958 | > 20
TUR (B-cell lymphoma, suspension, top dose 20 µM) |  |  |  |  |  |  | 0.911 | > 20
TYK-nu (ovary, adherent, top dose 20 µM) |  |  |  |  |  |  | 0.985 | > 20
U031 (kidney, adherent, top dose 20 µM) |  |  |  |  |  |  | 0.897 | > 20
U251 (glioma, adherent, top dose 20 µM) |  |  |  |  |  |  | 0.91 | > 20
U-2-OS (osteosarcoma, adherent, top dose 20 µM) |  |  |  |  |  |  | 0.951 | > 20
U-87-MG (glioma, adherent, top dose 20 µM) |  |  |  |  |  |  | 0.978 | > 20
U-118-MG (glioma, adherent, top dose 20 µM) |  |  |  |  |  |  | 0.983 | > 20
U-698-M (B-cell leukaemia, suspension, top dose 20 µM) |  |  |  |  |  |  | 0.909 | > 20
UACC-62 (melanoma, adherent, top dose 20 µM) |  |  |  |  |  |  | 0.985 | > 20
UACC-257 (melanoma, adherent, top dose 20 µM) |  |  |  |  |  |  | 0.971 | > 20
UACC-812 (breast, adherent, top dose 20 µM) |  |  |  |  |  |  | 0.976 | > 20
UACC-893 (breast, adherent, top dose 20 µM) |  |  |  |  |  |  | 0.943 | > 20
UM-UC-3 (bladder, adherent, top dose 20 µM) |  |  |  |  |  |  | 0.947 | > 20

Cell Line | AUC (AZD6244) | IC50 (AZD6244) [µM] | AUC (EX-527) | IC50 (EX-527) [µM] | AUC (YM201636) | IC50 (YM201636) [µM] | AUC (TAK-715) | IC50 (TAK-715) [µM]
UMC-11 (lung carcinoid, adherent, top dose 20 µM) |  |  |  |  |  |  | 0.947 | > 20
UWB1.289 (ovary, adherent, top dose 20 µM) |  |  |  |  |  |  | 0.948 | > 20
VA-ES-BJ (soft tissue, adherent, top dose 20 µM) |  |  |  |  |  |  | 0.969 | > 20
VAL (B-cell lymphoma, suspension, top dose 20 µM) |  |  |  |  |  |  | 0.81 | 10.5
VCaP (prostate, adherent, top dose 20 µM) |  |  |  |  |  |  | 0.964 | > 20
VM-CUB-1 (bladder, adherent, top dose 20 µM) |  |  |  |  |  |  | 0.988 | > 20
VMRC-MELG (melanoma, adherent, top dose 20 µM) |  |  |  |  |  |  | 0.985 | > 20
VMRC-RCW (kidney, adherent, top dose 20 µM) |  |  |  |  |  |  | 0.961 | > 20
VMRC-RCZ (kidney, adherent, top dose 20 µM) |  |  |  |  |  |  | 0.91 | > 20
WIL2-NS (lymphoid neoplasm, suspension, top dose 20 µM) |  |  |  |  |  |  | 0.656 | 3.08
WM35 (melanoma, adherent, top dose 20 µM) |  |  |  |  |  |  | 0.972 | > 20
WM278 (melanoma, adherent, top dose 20 µM) |  |  |  |  |  |  | 0.958 | > 20
WM793B (melanoma, adherent, top dose 20 µM) |  |  |  |  |  |  | 0.921 | > 20
WM1552C (melanoma, adherent, top dose 20 µM) |  |  |  |  |  |  | 0.952 | > 20
WM-115 (melanoma, adherent, top dose 20 µM) |  |  |  |  |  |  | 0.965 | > 20
WSU-DLCL2 (B-cell lymphoma, suspension, top dose 20 µM) |  |  |  |  |  |  | 0.893 | 16.7
WSU-NHL (lymphoid neoplasm, suspension, top dose 20 µM) |  |  |  |  |  |  | 0.942 | > 20
YAPC (pancreas, adherent, top dose 20 µM) |  |  |  |  |  |  | 0.977 | > 20
YH-13 (glioma, adherent, top dose 20 µM) |  |  |  |  |  |  | 0.984 | > 20
YKG-1 (glioma, adherent, top dose 20 µM) |  |  |  |  |  |  | 0.927 | > 20
YMB-1-E (breast, adherent) |  |  | 0.978 | > 20 | 0.86 | > 5.12 |  | 
YMB-1-E (breast, adherent, top dose 20 µM) |  |  |  |  |  |  | 0.96 | > 20
YT (lymphoid neoplasm, suspension, top dose 20 µM) |  |  |  |  |  |  | 0.872 | 14.2
huH-1 (liver, adherent, top dose 20 µM) |  |  |  |  |  |  | 0.975 | > 20
no-10 (glioma, adherent, top dose 20 µM) |  |  |  |  |  |  | 0.965 | > 20
no-11 (glioma, adherent, top dose 20 µM) |  |  |  |  |  |  | 0.967 | > 20
